Results published in paper PMC10726135.
This is one part of the list. At the low end of the ranking the order means little. Measured with an extract: partners may take part in the binding.

target: T1, HNF4alpha2 (COS-7 nuclear extract) (UniProt P41235); assay: protein-binding microarray; conditions: COS-7 nuclear extract on double-stranded Agilent 4x180k PBM; binding buffer, salt, pH and temperature not given; high values mean tight binding; double strand, one strand shown; sequences stand for … in …GCCTAGGGAGATTAGAGTATCGGTCGA
T1 sequence: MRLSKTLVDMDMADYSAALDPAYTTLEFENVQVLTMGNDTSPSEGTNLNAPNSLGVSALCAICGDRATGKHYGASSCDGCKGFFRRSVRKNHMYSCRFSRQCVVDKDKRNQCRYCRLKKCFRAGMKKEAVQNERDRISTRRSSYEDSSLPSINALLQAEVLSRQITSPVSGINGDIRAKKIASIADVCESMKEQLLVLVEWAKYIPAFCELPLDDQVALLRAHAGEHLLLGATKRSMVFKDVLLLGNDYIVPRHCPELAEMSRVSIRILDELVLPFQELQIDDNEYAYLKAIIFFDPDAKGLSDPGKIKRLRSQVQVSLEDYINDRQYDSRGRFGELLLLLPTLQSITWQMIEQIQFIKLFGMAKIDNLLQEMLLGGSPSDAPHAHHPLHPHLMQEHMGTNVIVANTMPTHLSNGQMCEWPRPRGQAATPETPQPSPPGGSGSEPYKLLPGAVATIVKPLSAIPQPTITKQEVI

Row | Sequence | binding signal (log2 normalized intensity)
1 | GGTACTGGAAACTGGGCAAGGTCCATTACG | 2.66
2 | TGGGTTTCGGTGTCATCTAGACCTGGACTT | 2.93
3 | GAGGGGGCAGGACAGCAGGAGTGGGAGAAA | -1.04
4 | AGCAGTGTGGACTTTTTCCTGAGGGCAGGA | 1.29
5 | GAACTCTGACCTTTGCCCCCAGCCTCTCAC | 8.72
6 | GGCCCTCAGCTGAGATAGCAGAGTCCAGTG | 2.39
7 | GGCTCCGATAAACCCAGGCAATGACTCCAA | -1.09
8 | GGAAGGCAGTAAGAGAGAAAGAAACAGGGG | -1.14
9 | TCCAGGAGGTCGCTGGAAAGGCGGCAGGCT | -1.11
10 | CTTGCCATTGGAGGTCACCCTGTGTCAGCG | 0.743
11 | TGAATTGGTCATAATTCTCAAACTTTATGG | 1.37
12 | TAGGAAGCAACAGACTGCTGTGTTACTAGA | -1.19
13 | TGGCATCCCTGTGGTATTTGCTCTGTCATC | 1.91
14 | TGTGAGACCGGTTCCGCGGTCCGCAGCGCT | -1.05
15 | TCCCTGCCAAAGGTCAGAGTTGAACCCTTG | 5.15
16 | AAAACAGAATGGTCTGTATTTCAGAGACTA | -0.994
17 | TTACTGCAGAGAAGAAGCTTTGCCATTGTT | 0.786
18 | ATGAGGGCAGGATGCATGCACTTCATTGTG | 1.06
19 | TGCTTATCTTCTCTTTTACTGTACTTCTTT | 1.82
20 | ATTGGTTGCAGAAGGCAGCCAAACAGAGGC | -1.15
21 | CTGACGCCATCTGGCGTCCCCCACCTGGAA | 4.57
22 | GACCACCTGGTGGACCCAGCTGGTAAGTGC | 1.97
23 | GAATTTGGACTTTGCACTAAAAGCCATGAG | 5.86
24 | AGGATCTGTGTTATGCTTGCAGGTGTCAGG | 1.95
25 | GACCTGGACTCCCAAGATGGATTGGGTCCA | 2.23

Row | Sequence | binding signal (log2 normalized intensity)
26 | GTGGTTTGCTACACTGCCAAAGTTCAACCA | 2.2
27 | GGGGTGGGAGTGCAGAGAGAGAGGGAGACA | -1.09
28 | GTGATACCAGGGGTCATTTTATGGGAAAAC | 1.49
29 | ATCTAACAAGAAGTCTGAAGGCAGGGCTTT | -1.12
30 | CCCTCCGCAACCTTTACTCCTTGTGGTCAA | 2.49
31 | TCTGGGATGTTGGGAGGAGTGGACTTTGAT | 5.99
32 | CTGGGATATCAGGTATTGCCCAGTATTGAT | 1.19
33 | CTGTTGGGGAGCAAAGGTTAGCAAGGGCCC | 2.54
34 | TGCAGGTAAAACTACATTTCCAAGACCTCT | -1.11
35 | CAGCCACATTCCATGAGCTGGCCTCACTAA | -1.14
36 | AAGGGCCCATGGGCTTCAGGGTAAATCCCG | -1.11
37 | CTATGCCTTGAACTTTAAGGCACCTGCTCT | -0.636
38 | GAGCTCGCGCCGGGCACTGATAACGCCCGC | -1.27
39 | GCTCTCTGCTCTTACCTGCCAAATATTGGG | -1.03
40 | CCATACCTCTTGCGTGTTATCTATGGAACA | 1.5
41 | ATGGCTAATCAGTATTGAGGCCGGAGGGCA | 1.03
42 | GGACTATCCCCGTCCGCGGAAGCACACACG | -0.869
43 | CAGCCACAAAAACCAAAGGTCACTTCGCAT | 3.47
44 | GGACGGGTAAGAGTCGTGGCCTTGCCATTG | -0.23
45 | TTCCCATTCATAAAATTACGCCACAGAGTT | -0.871
46 | GTTGTTTTTAAAAGGCTGCCTTTCCCAGAT | -1.01
47 | GAAAGGAGACTAAAGGTCAAAACCACCTAT | 2.78
48 | TGAGTGGGTTCACTTTGAGCAAGATAATGA | 0.62
49 | TTTAAAGAACTGGGCGAGCCCTCTGATCTG | -1.09
50 | TTGTATGTCCAAGGGTCACTCGACATTCAT | 3.02

Row | Sequence | binding signal (log2 normalized intensity)
51 | TAAGATTCTGGTCAAAGGTCAATGAAGCTC | 5.93
52 | AAATGTTATCATTACTTCTCAACTGATATG | 1.5
53 | TCCTGCCTTGGAGAAGTGAACTTTGCCCTC | 10.2
54 | CCAGCAAACGTTCTTCTCTAACCCTCCTTT | 1.39
55 | GGATGTGGGACTTAATCCTTGTCTGTTTGG | 1.91
56 | CTGGGCCCCTCGGCCGCTCCCTCCCCTCCT | 5.21
57 | CTAAGAGCCTACTGAGAGGAAAGGGGTTAA | -1.1
58 | GCTGATCACTTAAAATGAGACTTCCCAGCT | -1.05
59 | AAGACTGCAGCAAAGTCCTCCAACTGCCAC | -1.07
60 | GGCAGTGGGACAATGAAGCCTAAATGATAA | -1.24
61 | TCTGTAGTGTTGCTCAAGTCTCCTGTTTTC | 1.8
62 | AGGCTGAAGAAGTTGCTCAGTGTTCCACAG | -1.14
63 | CACCCCACACACACACAGCATTCCATTCAT | 1.1
64 | GATCAAAGGAAACTGCTTGGGCCCCTCCCT | 1.83
65 | TAATTAGACAACATCGAAGACTTCATGATA | -1.03
66 | TACCTTTGAAACCTAAGATGTCACAGGCAA | -1.16
67 | CGTGGGCATGCCTCCCAGAGCATTGTTTAT | 0.706
68 | TTTGAAGTTTAGAGATGCCTATAGGGTCTT | 0.736
69 | TCAAGATGAAGCAAGAGTCCAAATTCCTAG | 1.53
70 | GAAGGACGTCAGAACTGTCCTTTAACCTCC | 3.93
71 | CTGCCTTAGTCCCAGTATGGTCTCAGTAAT | -0.127
72 | CGGCAGCACAAGGCGGTAGCCATGGCGGAG | -1.14
73 | GTCTGCTGCCCAGACACACAATATTATGTT | -0.79
